The text below walks through data of article PMC4336329 (PLoS ONE, 2015).

The campaign covered roughly 310,000 compounds. About 2,200 (0.71%) showed an effect of 50% or more. Effects have a minus sign here. The list shows a part of the results.

The target in the assay is human ether-à-go-go-related gene (hERG) potassium channel (human, UniProt Q12809). The assay is described as follows: primary screen, population patch clamp on CHO cells stably expressing hERG.
Sequence of human ether-à-go-go-related gene (hERG) potassium channel (Q12809 whole entry, looked up): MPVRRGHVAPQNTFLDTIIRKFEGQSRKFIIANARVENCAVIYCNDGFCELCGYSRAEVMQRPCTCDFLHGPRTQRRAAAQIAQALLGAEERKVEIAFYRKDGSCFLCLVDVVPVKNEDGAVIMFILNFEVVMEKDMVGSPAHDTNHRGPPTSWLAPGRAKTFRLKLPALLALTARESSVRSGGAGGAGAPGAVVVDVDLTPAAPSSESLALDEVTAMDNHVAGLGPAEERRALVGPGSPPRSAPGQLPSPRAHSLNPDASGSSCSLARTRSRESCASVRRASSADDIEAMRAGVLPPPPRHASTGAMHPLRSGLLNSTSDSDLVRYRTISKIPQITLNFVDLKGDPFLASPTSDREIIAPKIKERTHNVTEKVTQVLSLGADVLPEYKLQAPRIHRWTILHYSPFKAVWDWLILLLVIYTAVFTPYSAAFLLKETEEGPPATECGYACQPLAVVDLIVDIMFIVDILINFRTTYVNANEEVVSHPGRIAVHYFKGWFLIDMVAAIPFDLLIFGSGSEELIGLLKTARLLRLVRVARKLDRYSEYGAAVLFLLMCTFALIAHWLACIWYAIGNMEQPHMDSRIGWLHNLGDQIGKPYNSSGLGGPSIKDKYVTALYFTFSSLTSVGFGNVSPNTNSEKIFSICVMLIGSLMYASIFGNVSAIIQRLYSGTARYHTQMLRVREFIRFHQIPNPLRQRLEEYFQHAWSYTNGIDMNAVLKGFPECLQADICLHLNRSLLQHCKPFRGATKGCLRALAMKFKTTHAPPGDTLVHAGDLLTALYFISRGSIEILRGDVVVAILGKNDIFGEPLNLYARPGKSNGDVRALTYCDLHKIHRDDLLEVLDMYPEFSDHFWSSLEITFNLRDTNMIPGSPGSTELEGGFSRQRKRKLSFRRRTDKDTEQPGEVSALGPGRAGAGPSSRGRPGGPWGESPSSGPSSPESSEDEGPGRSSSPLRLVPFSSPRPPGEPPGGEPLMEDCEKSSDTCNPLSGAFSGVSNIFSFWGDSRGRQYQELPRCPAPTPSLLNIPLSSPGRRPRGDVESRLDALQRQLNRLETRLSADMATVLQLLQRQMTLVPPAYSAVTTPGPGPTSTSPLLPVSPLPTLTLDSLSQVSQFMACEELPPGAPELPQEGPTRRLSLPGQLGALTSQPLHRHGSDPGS
Regarding `CC(=O)Nc1ccc(S(=O)(=O)NCc2csc(-c3cccnc3)n2)cc1`, the “hERG current change (%, negative = inhibition) at 1uM” value is recorded as 13.6%.
For `Cc1cc(C)n(-c2nc3ccccc3n3c(C)nnc23)n1` the value was 10.3%; for `Cc1ccc(CNC(=O)C2CCC(=O)N(CC3CCCCC3)C2)o1` (stereo not shown), 22.7%.
For `Cc1nc(/N=C\c2ccc(N(C)C)cc2)sc1C` the value was 12.1%; for `CNC(=O)Nc1ccc(Cn2cc(C(F)(F)F)ccc2=O)cc1`, 12.4%; for `O=C(NCc1ccccn1)C(=O)NCC1OCCCN1S(=O)(=O)c1cc(F)ccc1F` (stereo not shown), 8.02%.
For `CCCCN(C)CCN1C(=O)C2C(C(=O)Nc3cccc(OC)c3)C3C=CC2(O3)C1C(=O)NC1CCCCC1C` (stereo not shown) the value was 15.9%; for `CC(=O)Nc1ccc(Nc2ncnc3c2cnn3-c2ccccc2)cc1`, 10.7%.
With `O=Cc1cn(-c2ccccc2)nc1-c1ccc2c(c1)OCCO2`, the “hERG current change (%, negative = inhibition) at 1uM” value was found to be 5.48%.
As to `COC(=O)c1ccccc1NC(=O)Nc1cccc(C)n1`, the “hERG current change (%, negative = inhibition) at 1uM” value was 7.16%.
Turning to `O=C(Nc1ccc(C2CC2(Cl)Cl)cc1)c1cccc([N+](=O)[O-])c1` (stereo not shown), the “hERG current change (%, negative = inhibition) at 1uM” value amounted to 13.9%.
With `COc1ccc(S(=O)(=O)NCCSC(C)(C)C)cc1`, the “hERG current change (%, negative = inhibition) at 1uM” value came out at 17.1%.
For `Cc1c(C(=O)N(C)c2cccc(Cl)c2)cnn1-c1ccccc1` the value was 6.8%; for `COc1ccc(C(=O)Cn2c(C(=O)/C=C/c3ccccc3)nc3ccccc32)cc1`, -10.2%; for `Cc1nn(Cc2ccc(F)cc2)c(Cl)c1/C=N/NC(=O)c1ccccc1`, -6.29%.
For `COc1cccc(CN(C)C(=O)CSCC(=O)Nc2ccc(C)cc2)c1OC` the value was 0.847%.
Consider `COc1cccc(NC(=O)N2C3CCCC2CC(NC(C)=O)C3)c1` (stereo not shown), for which the “hERG current change (%, negative = inhibition) at 1uM” value is given as 11.6%.
For `CCOC(=O)C(C)Oc1cccc2c(=O)n(CC(=O)N3CCN(C(=O)OCC)CC3)ccc12` (stereo not shown) the value was 8.66%; for `COc1ccc2c3c(c(=O)oc2c1OCC(N)=O)CCCC3`, 3.91%; for `COc1ccc(NC(=O)CN(C)C(=O)CCC2CCCC2)cc1`, 19.6%.
For `COc1ccc(C(=O)N2CCN(CCNC(=O)C(=O)Nc3ccc(Br)cc3)CC2)cc1` the value was -25.2%.
Take `CCc1nnc(NC(=O)CSc2ncc(-c3ccccc3)n2CC)s1`: the “hERG current change (%, negative = inhibition) at 1uM” value is given as -21.5%.
For `CN=c1scc(-c2ccccc2Br)n1/N=C/c1ccc[nH]1` the value was 6%.
As to `CCOC(=O)N/N=C/c1cn(CCCOc2ccc(C)cc2)c2ccccc12`, the “hERG current change (%, negative = inhibition) at 1uM” value was determined as 9%.
For `Cc1nc2ccccc2cc1O` the value was 9.82%.
